Measurements reported in the supplement of paper PMC12217912.
The list shows a part of the results. Sequences were assembled here from the parent chain. Values near 0.05 are background.

B1: TEV protease; numbered along this chain (parent)
chain: MGESLFKGPRDYNPISSSICHLTNESDGHTTSLYGIGFGPFIITNKHLFRRNNGTLVVQSLHGVFKVKDTTTLQQHLVDGRDMIIIRMPKDFPPFPQKLKFREPQREERICLVTTNFQTKSMSSMVSDTSCTFPSGDGIFWKHWIQTKDGQCGSPLVSTRDGFIVGIHSASNFTNTNNYFTSVPKNFMELLTNQEAQQWVSGWRLNADSVLWGGHKVFMVKPEEPFQPVKEATQL

Variants of: B1
Assay: raw area under fraction-flipped curve 0-4 h after induction (AUC4h, not background-subtracted), DNA-recorder readout of cleavage of the substrate (dimensionless); higher = more cleavage of the substrate by the protease variant
Conditions: temperature: 34 °C; time window: 0-4 h after rhamnose induction
Procedure: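 In vivo DNA recorder in E. coli TOP10(DE3) ΔrhaA at 34 °C. Each TEVp single-site mutant (parent TEVp 0) is paired with a single-site variant of the 7-mer TEVs (canonical ENLYFQ|S). The substrate sits between flexible linkers in a Bxb1-sfGFP-TEVs-SsrA fusion, so cleavage stabilises Bxb1 and speeds flipping of a recombination array, read by NGS. The value is the raw area under the fraction-flipped curve over 0-4 h after rhamnose induction (AUC4h), with ≥20 reads per time point. It is not background-subtracted; inactive controls average about 0.047.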
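Further: Bxb1 expression induced with 0.2% (w/v) L-rhamnose at OD600 near 0.5, cultures sampled hourly, flipped fraction per protease–substrate barcode pair counted by paired-end Illumina sequencing.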

Variant | area with substrate CNLYFQS | area with substrate DNLYFQS | area with substrate FNLYFQS | area with substrate GNLYFQS | area with substrate HNLYFQS | area with substrate INLYFQS | area with substrate KNLYFQS | area with substrate LNLYFQS | area with substrate MNLYFQS | area with substrate NNLYFQS | area with substrate PNLYFQS | area with substrate QNLYFQS | area with substrate RNLYFQS | area with substrate SNLYFQS | area with substrate TNLYFQS | area with substrate VNLYFQS | area with substrate WNLYFQS | area with substrate YNLYFQS
N177S | 0.0562 | 0.0602 | 0.046 | 0.0743 | 0.0506 | 0.0519 | 0.069 | 0.0553 | 0.0525 | 0.0495 | 0.0631 | 0.0475 | 0.0514 | 0.051 | 0.0497 | 0.0383 | 0.0524 | 0.0422
K185G | 0.0814 | 0.0532 | 0.0617 | – | 0.0635 | 0.0637 | 0.0738 | 0.062 | – | – | 0.0722 | 0.0832 | 0.074 | 0.0685 | – | – | – | 0.0515
I167A | 0.0544 | 0.079 | – | – | 0.0485 | 0.0487 | – | – | 0.0479 | – | 0.0481 | – | – | – | 0.0448 | – | 0.0511 | –
S171M | 0.0675 | 0.058 | – | – | 0.042 | – | 0.0596 | 0.0628 | 0.0664 | – | 0.0662 | – | 0.0528 | 0.0638 | 0.0622 | 0.0344 | 0.0326 | –
S171L | 0.0502 | 0.0647 | – | 0.0474 | 0.0549 | 0.0521 | 0.0906 | 0.0553 | 0.0593 | – | – | – | – | 0.0671 | 0.0595 | – | 0.0554 | 0.0655
S171F | 0.0587 | 0.0631 | – | 0.0563 | 0.0583 | 0.061 | 0.0499 | – | 0.0691 | – | 0.0754 | – | – | 0.0664 | 0.0504 | 0.0493 | – | 0.0601
G202Q | 0.0735 | 0.0665 | 0.0544 | – | 0.055 | – | 0.05 | 0.0604 | 0.0672 | 0.0633 | 0.0527 | 0.0657 | – | – | 0.0614 | 0.0591 | 0.0554 | 0.0571
V217P | 0.0651 | 0.0737 | 0.0767 | 0.0327 | 0.0585 | 0.0524 | 0.0539 | 0.066 | – | 0.0503 | 0.0578 | 0.0575 | – | 0.0442 | 0.0636 | 0.0371 | 0.0548 | –
V217C | 0.0732 | 0.101 | 0.058 | 0.0666 | 0.0557 | 0.0573 | 0.0707 | 0.0553 | 0.0602 | 0.0534 | 0.0761 | – | – | 0.071 | 0.0636 | 0.0767 | 0.061 | 0.0613
L205M | 0.0935 | 0.0997 | 0.0639 | 0.0802 | 0.0674 | 0.0699 | 0.0843 | – | 0.0728 | 0.0632 | – | – | – | 0.0502 | 0.0743 | – | – | 0.075
L205G | 0.0654 | 0.0771 | 0.0451 | 0.0511 | 0.0592 | 0.0665 | – | 0.075 | – | – | 0.0574 | 0.0836 | – | 0.0606 | 0.0589 | 0.0645 | 0.0585 | 0.0497
W199E | 0.0686 | 0.055 | – | 0.0598 | 0.0588 | 0.0687 | – | 0.0652 | 0.0559 | 0.0632 | 0.0545 | 0.0753 | 0.0688 | 0.0585 | 0.0563 | – | 0.0556 | –
W199N | 0.0593 | 0.0571 | – | – | 0.0619 | 0.0637 | – | 0.0784 | – | – | 0.0666 | 0.0559 | 0.0364 | – | 0.0722 | – | 0.059 | 0.0518
